Assay results reported in PMC4336329 (PLoS ONE, 2015).
Out of some 310,000 compounds screened, about 2,200 (0.71%) showed an effect of 50% or more. The effect is printed as a negative number. The list shows a part of the results.

target: human ether-à-go-go-related gene (hERG) potassium channel (human, UniProt Q12809); experiment: primary screen, population patch clamp on CHO cells stably expressing hERG
Sequence (Q12809 whole entry, looked up): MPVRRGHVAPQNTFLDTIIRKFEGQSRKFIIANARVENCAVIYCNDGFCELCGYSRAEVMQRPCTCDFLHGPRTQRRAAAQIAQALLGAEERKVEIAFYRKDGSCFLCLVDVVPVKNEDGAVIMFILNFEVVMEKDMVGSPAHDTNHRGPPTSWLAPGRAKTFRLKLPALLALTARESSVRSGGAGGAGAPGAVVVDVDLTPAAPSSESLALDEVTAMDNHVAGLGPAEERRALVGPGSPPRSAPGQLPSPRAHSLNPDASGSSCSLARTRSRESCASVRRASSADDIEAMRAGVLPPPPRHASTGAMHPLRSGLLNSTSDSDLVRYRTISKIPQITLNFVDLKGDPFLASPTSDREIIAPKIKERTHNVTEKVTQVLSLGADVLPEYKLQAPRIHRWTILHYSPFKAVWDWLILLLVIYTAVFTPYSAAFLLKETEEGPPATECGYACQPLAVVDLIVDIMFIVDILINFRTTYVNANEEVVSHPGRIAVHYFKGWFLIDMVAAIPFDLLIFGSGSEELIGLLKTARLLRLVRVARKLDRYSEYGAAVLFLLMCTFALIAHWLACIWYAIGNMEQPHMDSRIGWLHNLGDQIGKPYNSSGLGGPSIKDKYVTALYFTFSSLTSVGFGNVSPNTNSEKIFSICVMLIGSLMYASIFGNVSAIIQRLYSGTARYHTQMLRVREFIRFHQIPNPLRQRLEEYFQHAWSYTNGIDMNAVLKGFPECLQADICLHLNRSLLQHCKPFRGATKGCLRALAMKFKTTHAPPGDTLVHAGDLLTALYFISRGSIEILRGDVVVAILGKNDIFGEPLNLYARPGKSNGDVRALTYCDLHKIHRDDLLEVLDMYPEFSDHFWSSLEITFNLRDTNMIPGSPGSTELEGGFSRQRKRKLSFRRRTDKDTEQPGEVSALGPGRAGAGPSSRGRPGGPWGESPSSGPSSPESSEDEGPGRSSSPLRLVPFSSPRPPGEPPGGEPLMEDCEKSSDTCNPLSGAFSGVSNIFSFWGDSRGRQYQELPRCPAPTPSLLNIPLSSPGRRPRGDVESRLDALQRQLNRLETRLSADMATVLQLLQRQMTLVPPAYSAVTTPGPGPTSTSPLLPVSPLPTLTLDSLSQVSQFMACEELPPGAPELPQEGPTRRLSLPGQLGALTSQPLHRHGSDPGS

Row | Compound | hERG current change (%, negative = inhibition) at 1uM [%]
1 | CCC1CCCCN1CCCNC(=O)C1CCN(S(=O)(=O)N2CCCCC2)CC1 (centres unmarked) | 8.43
2 | COC(=O)c1cccc(NC(=O)c2nn(C)c(=O)c3ccccc23)c1 | -11.2
3 | Cc1cc(C)n2cc(CSCC(=O)O)nc2n1 | 22
4 | CCCCn1c(SCC(=O)OCC)nc2c(sc(=S)n2-c2ccccc2OC)c1=O | 5.29
5 | Cc1ccc(/C=N/NC(=O)CSc2nnc(-c3ccc(Cl)cc3)n2-c2ccc(Cl)cc2)o1 | 9.27
6 | COc1ccc(N2CCN(C(=O)c3cccc(Br)c3)CC2)c([N+](=O)[O-])c1 | -85.9
7 | CCCCNS(=O)(=O)c1cc2c3c(c1)CCN3C(=O)CC2 | 14.8
8 | Cn1c(=O)oc2cc(S(=O)(=O)NCCC(=O)N3CCN(c4ccccc4)CC3)ccc21 | 15.1
9 | O=C(Nc1ccc(S(=O)(=O)Nc2ncccn2)cc1)C1=NN(c2ccccc2)C(=O)CC1 | 4.52
10 | Cc1ccccc1-c1nn(-c2ccc(F)cc2F)cc1CNCCN(C)C | 9.36
11 | COc1ccc(C(CNC(=O)C(=O)Nc2ccc3c(c2)OCO3)N2CCN(C)CC2)cc1 (centres unmarked) | -4.91
12 | CCOc1cc(NC(=S)Nc2cccc(OC)c2)c(OCC)cc1NC(=O)c1ccc(C)cc1 | 10.3
13 | O=C(O)/C=C\c1cccc(-n2nnnc2SCc2ccccc2F)c1 | 16.8
14 | O=C(Nc1ccc(Br)cc1)c1ccccc1CC[N+](=O)[O-] | 7.7
15 | O=C(CCc1nnc2n(Cc3ccc(Cl)cc3)c(=O)c3ccccc3n12)N1CCN(c2ccccn2)CC1 | 5.12
16 | CCN(CC)S(=O)(=O)c1cccc(C(=O)NCc2ccccc2)c1 | -0.29
17 | CC(=O)NCCCNc1ccc([N+](=O)[O-])cc1 | -1.63
18 | CN1CC(=O)N(CC(=O)Nc2ccc(Cl)c(C(F)(F)F)c2)C1=O | 9.66
19 | O=C(NCc1ccc2c(c1)OCO2)c1c(Cl)cccc1Cl | 11.8
20 | O=C(Nc1ccc(N2C(=O)C3CCCCC3C2=O)cc1Cl)c1cccs1 (centres unmarked) | 19.3
21 | COC(=O)/C=c1/s/c(=C(/C#N)C(=O)NCc2ccccc2)n(-c2ccccc2)c1=O | 6.3
22 | O=C(COC(=O)/C=C/c1ccco1)Nc1ccc(F)cc1Cl | 16.2
23 | COc1ccc2[n-]c(S(=O)Cc3ncc(C)c(OC)c3C)nc2c1.COc1ccc2[n-]c(S(=O)Cc3ncc(C)c(OC)c3C)nc2c1.[Mg+2] (centres unmarked) [49665950] | 16.3
